According to paper PMC12820563:
Some of the results follow. The list includes weakly bound sequences.

target: T1, MBP-FoxP3dN (UniProt Q99JB6); experiment: PD-seq (MBP pull-down with sequencing); settings: 20 mM Tris-HCl pH 7.5, 100 mM NaCl, 1.5 mM MgCl2, 0.4 uM protein, 0.1 uM dsDNA library, 30 min, room temperature, amylose pull-down; high values mean tight binding; double strand, one strand shown
T1 sequence: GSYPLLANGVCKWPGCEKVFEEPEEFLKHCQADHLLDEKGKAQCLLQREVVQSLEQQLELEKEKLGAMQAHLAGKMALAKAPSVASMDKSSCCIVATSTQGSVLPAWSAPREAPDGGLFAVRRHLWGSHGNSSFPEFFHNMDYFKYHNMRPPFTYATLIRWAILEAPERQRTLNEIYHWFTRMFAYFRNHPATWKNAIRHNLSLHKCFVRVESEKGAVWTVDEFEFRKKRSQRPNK

Row | Sequence | binding signal (RPM ratio (pull-down/input))
1 | GATGATTGTTCTCCCAGCTGATGAATTTATAAGATCGAGTAAACAAATTTTCCTAATCTTTCTGTTCAAGCGCCATCTAC | 0.318
2 | GATGATTGTTCTCCCAGCTGATGAATTAATCTATTCGAGTAAACAAATTTTCCTAATCTTTCTGTTCAAGCGCCATCTAC | 0.398
3 | GATGATTGTTCTCCCAGCTGATGAATTACCGAAGTCGAGTAAACAAATTTTCCTAATCTTTCTGTTCAAGCGCCATCTAC | 0.224
4 | GATGATTGTTCTCCCAGCTGATGAATTAGCCCTTTCGAGTAAACAAATTTTCCTAATCTTTCTGTTCAAGCGCCATCTAC | 0.284
5 | GATGATTGTTCTCCCAGCTGATGAATTTGTTTAGTCGAGTAAACAAATTTTCCTAATCTTTCTGTTCAAGCGCCATCTAC | 7.22
6 | GATGATTGTTCTCCCAGCTGATGAATTAGAGCGTTCGAGTAAACAAATTTTCCTAATCTTTCTGTTCAAGCGCCATCTAC | 1.06
7 | GATGATTGTTCTCCCAGCTGATGAATTCACGCCATCGAGTAAACAAATTTTCCTAATCTTTCTGTTCAAGCGCCATCTAC | 1.91
8 | GATGATTGTTCTCCCAGCTGATGAATTTCTAGTATCGAGTAAACAAATTTTCCTAATCTTTCTGTTCAAGCGCCATCTAC | 0.407
9 | GATGATTGTTCTCCCAGCTGATGAATTTCAGTCGTCGAGTAAACAAATTTTCCTAATCTTTCTGTTCAAGCGCCATCTAC | 0.474
10 | GATGATTGTTCTCCCAGCTGATGAATTTATGACTTCGAGTAAACAAATTTTCCTAATCTTTCTGTTCAAGCGCCATCTAC | 0.905
11 | GATGATTGTTCTCCCAGCTGATGAATTTACCAGTTCGAGTAAACAAATTTTCCTAATCTTTCTGTTCAAGCGCCATCTAC | 0.409
12 | GATGATTGTTCTCCCAGCTGATGAATTTCCCAACTCGAGTAAACAAATTTTCCTAATCTTTCTGTTCAAGCGCCATCTAC | 0.237
13 | GATGATTGTTCTCCCAGCTGATGAATTGATGATTTCGAGTAAACAAATTTTCCTAATCTTTCTGTTCAAGCGCCATCTAC | 1.11
14 | GATGATTGTTCTCCCAGCTGATGAATTGGTTATCTCGAGTAAACAAATTTTCCTAATCTTTCTGTTCAAGCGCCATCTAC | 2.06
15 | GATGATTGTTCTCCCAGCTGATGAATTACTGGCCTCGAGTAAACAAATTTTCCTAATCTTTCTGTTCAAGCGCCATCTAC | 0.42
16 | GATGATTGTTCTCCCAGCTGATGAATTGCCTCGATCGAGTAAACAAATTTTCCTAATCTTTCTGTTCAAGCGCCATCTAC | 0.611
17 | GATGATTGTTCTCCCAGCTGATGAATTCGTTTGATCGAGTAAACAAATTTTCCTAATCTTTCTGTTCAAGCGCCATCTAC | 1.31
18 | GATGATTGTTCTCCCAGCTGATGAATTGGCCGCGTCGAGTAAACAAATTTTCCTAATCTTTCTGTTCAAGCGCCATCTAC | 0.493
19 | GATGATTGTTCTCCCAGCTGATGAATTCGAGTAATCGAGTAAACAAATTTTCCTAATCTTTCTGTTCAAGCGCCATCTAC | 0.608
20 | GATGATTGTTCTCCCAGCTGATGAATTTTCTCCGTCGAGTAAACAAATTTTCCTAATCTTTCTGTTCAAGCGCCATCTAC | 0.198
21 | GATGATTGTTCTCCCAGCTGATGAATTTAGGGCTTCGAGTAAACAAATTTTCCTAATCTTTCTGTTCAAGCGCCATCTAC | 0.514

Row | Sequence | binding signal (RPM ratio (pull-down/input))
22 | GATGATTGTTCTCCCAGCTGATGAATTATCATGCTCGAGTAAACAAATTTTCCTAATCTTTCTGTTCAAGCGCCATCTAC | 0.511
23 | GATGATTGTTCTCCCAGCTGATGAATTAGGGGTCTCGAGTAAACAAATTTTCCTAATCTTTCTGTTCAAGCGCCATCTAC | 0.692
24 | GATGATTGTTCTCCCAGCTGATGAATTTCTACCCTCGAGTAAACAAATTTTCCTAATCTTTCTGTTCAAGCGCCATCTAC | 0.238
25 | GATGATTGTTCTCCCAGCTGATGAATTAGACGGGTCGAGTAAACAAATTTTCCTAATCTTTCTGTTCAAGCGCCATCTAC | 0.28
26 | GATGATTGTTCTCCCAGCTGATGAATTAATCGTCTCGAGTAAACAAATTTTCCTAATCTTTCTGTTCAAGCGCCATCTAC | 0.656
27 | GATGATTGTTCTCCCAGCTGATGAATTTAGACTATCGAGTAAACAAATTTTCCTAATCTTTCTGTTCAAGCGCCATCTAC | 0.787
28 | GATGATTGTTCTCCCAGCTGATGAATTTCCTGAATCGAGTAAACAAATTTTCCTAATCTTTCTGTTCAAGCGCCATCTAC | 0.15
29 | GATGATTGTTCTCCCAGCTGATGAATTAGAAAAGTCGAGTAAACAAATTTTCCTAATCTTTCTGTTCAAGCGCCATCTAC | 0.144
30 | GATGATTGTTCTCCCAGCTGATGAATTGGCGTGATCGAGTAAACAAATTTTCCTAATCTTTCTGTTCAAGCGCCATCTAC | 1
31 | GATGATTGTTCTCCCAGCTGATGAATTGGAACTTTCGAGTAAACAAATTTTCCTAATCTTTCTGTTCAAGCGCCATCTAC | 0.277
32 | GATGATTGTTCTCCCAGCTGATGAATTGGCACTTTCGAGTAAACAAATTTTCCTAATCTTTCTGTTCAAGCGCCATCTAC | 0.459
33 | GATGATTGTTCTCCCAGCTGATGAATTATGGTGCTCGAGTAAACAAATTTTCCTAATCTTTCTGTTCAAGCGCCATCTAC | 0.817
34 | GATGATTGTTCTCCCAGCTGATGAATTCTTTCACTCGAGTAAACAAATTTTCCTAATCTTTCTGTTCAAGCGCCATCTAC | 0.258
35 | GATGATTGTTCTCCCAGCTGATGAATTGATGCAGTCGAGTAAACAAATTTTCCTAATCTTTCTGTTCAAGCGCCATCTAC | 3.37
36 | GATGATTGTTCTCCCAGCTGATGAATTAACTAAATCGAGTAAACAAATTTTCCTAATCTTTCTGTTCAAGCGCCATCTAC | 0.19
37 | GATGATTGTTCTCCCAGCTGATGAATTTTACATCTCGAGTAAACAAATTTTCCTAATCTTTCTGTTCAAGCGCCATCTAC | 0.446
38 | GATGATTGTTCTCCCAGCTGATGAATTTAGCCCGTCGAGTAAACAAATTTTCCTAATCTTTCTGTTCAAGCGCCATCTAC | 1.59
39 | GATGATTGTTCTCCCAGCTGATGAATTGACACGCTCGAGTAAACAAATTTTCCTAATCTTTCTGTTCAAGCGCCATCTAC | 0.497
40 | GATGATTGTTCTCCCAGCTGATGAATTAGATGCATCGAGTAAACAAATTTTCCTAATCTTTCTGTTCAAGCGCCATCTAC | 2.95
41 | GATGATTGTTCTCCCAGCTGATGAATTTCACATCTCGAGTAAACAAATTTTCCTAATCTTTCTGTTCAAGCGCCATCTAC | 0.58
42 | GATGATTGTTCTCCCAGCTGATGAATTGGAGATTTCGAGTAAACAAATTTTCCTAATCTTTCTGTTCAAGCGCCATCTAC | 0.315

Row | Sequence | binding signal (RPM ratio (pull-down/input))
43 | GATGATTGTTCTCCCAGCTGATGAATTGCTTCGCTCGAGTAAACAAATTTTCCTAATCTTTCTGTTCAAGCGCCATCTAC | 0.445
44 | GATGATTGTTCTCCCAGCTGATGAATTCCATGAATCGAGTAAACAAATTTTCCTAATCTTTCTGTTCAAGCGCCATCTAC | 0.262
45 | GATGATTGTTCTCCCAGCTGATGAATTGGACGGCTCGAGTAAACAAATTTTCCTAATCTTTCTGTTCAAGCGCCATCTAC | 0.227
46 | GATGATTGTTCTCCCAGCTGATGAATTTCAAAGGTCGAGTAAACAAATTTTCCTAATCTTTCTGTTCAAGCGCCATCTAC | 0.186
47 | GATGATTGTTCTCCCAGCTGATGAATTGTCCTCATCGAGTAAACAAATTTTCCTAATCTTTCTGTTCAAGCGCCATCTAC | 0.396
48 | GATGATTGTTCTCCCAGCTGATGAATTTTTTGCATCGAGTAAACAAATTTTCCTAATCTTTCTGTTCAAGCGCCATCTAC | 1.37
49 | GATGATTGTTCTCCCAGCTGATGAATTGTGTGTTTCGAGTAAACAAATTTTCCTAATCTTTCTGTTCAAGCGCCATCTAC | 4.97
50 | GATGATTGTTCTCCCAGCTGATGAATTTTCTTGGTCGAGTAAACAAATTTTCCTAATCTTTCTGTTCAAGCGCCATCTAC | 0.357
51 | GATGATTGTTCTCCCAGCTGATGAATTGGCCAGTTCGAGTAAACAAATTTTCCTAATCTTTCTGTTCAAGCGCCATCTAC | 0.301
52 | GATGATTGTTCTCCCAGCTGATGAATTAAGACCCTCGAGTAAACAAATTTTCCTAATCTTTCTGTTCAAGCGCCATCTAC | 0.354
53 | GATGATTGTTCTCCCAGCTGATGAATTCTTAGCTTCGAGTAAACAAATTTTCCTAATCTTTCTGTTCAAGCGCCATCTAC | 0.274
54 | GATGATTGTTCTCCCAGCTGATGAATTAACTGCCTCGAGTAAACAAATTTTCCTAATCTTTCTGTTCAAGCGCCATCTAC | 0.42
55 | GATGATTGTTCTCCCAGCTGATGAATTAGTGAAATCGAGTAAACAAATTTTCCTAATCTTTCTGTTCAAGCGCCATCTAC | 0.414
56 | GATGATTGTTCTCCCAGCTGATGAATTATACTGCTCGAGTAAACAAATTTTCCTAATCTTTCTGTTCAAGCGCCATCTAC | 0.496
57 | GATGATTGTTCTCCCAGCTGATGAATTCCCGGGTTCGAGTAAACAAATTTTCCTAATCTTTCTGTTCAAGCGCCATCTAC | 0.27
58 | GATGATTGTTCTCCCAGCTGATGAATTGTAAGTGTCGAGTAAACAAATTTTCCTAATCTTTCTGTTCAAGCGCCATCTAC | 0.84
59 | GATGATTGTTCTCCCAGCTGATGAATTACAGGAGTCGAGTAAACAAATTTTCCTAATCTTTCTGTTCAAGCGCCATCTAC | 0.277
60 | GATGATTGTTCTCCCAGCTGATGAATTGTAGACATCGAGTAAACAAATTTTCCTAATCTTTCTGTTCAAGCGCCATCTAC | 0.874
61 | GATGATTGTTCTCCCAGCTGATGAATTGTGAGGCTCGAGTAAACAAATTTTCCTAATCTTTCTGTTCAAGCGCCATCTAC | 0.816
62 | GATGATTGTTCTCCCAGCTGATGAATTTGTGACCTCGAGTAAACAAATTTTCCTAATCTTTCTGTTCAAGCGCCATCTAC | 2.34
63 | GATGATTGTTCTCCCAGCTGATGAATTAAGAAATTCGAGTAAACAAATTTTCCTAATCTTTCTGTTCAAGCGCCATCTAC | 0.453
